From PubChem BioAssay AID624417 (National Center for Advancing Translational Sciences (NCATS), 2012)
About 6,400 (1.6%) of roughly 410,000 compounds were called active. Inconclusive results, whose numbers are uncertain, are shown with a selection of clear calls. The call rests on the fitted dose curve; in most records, active means well fitted inhibition curve with a large enough effect; inconclusive means small, poorly fitted or top-dose-only effect; inactive means no such curve, though single readings can be large or run the other way. Potencies beside an inconclusive call are fits to weak or partial responses and may not hold up.

Target: Glucagon-like peptide 1 receptor (Homo sapiens) (UniProt P43220)
Sequence of UniProt P43220 (P43220 whole entry, looked up): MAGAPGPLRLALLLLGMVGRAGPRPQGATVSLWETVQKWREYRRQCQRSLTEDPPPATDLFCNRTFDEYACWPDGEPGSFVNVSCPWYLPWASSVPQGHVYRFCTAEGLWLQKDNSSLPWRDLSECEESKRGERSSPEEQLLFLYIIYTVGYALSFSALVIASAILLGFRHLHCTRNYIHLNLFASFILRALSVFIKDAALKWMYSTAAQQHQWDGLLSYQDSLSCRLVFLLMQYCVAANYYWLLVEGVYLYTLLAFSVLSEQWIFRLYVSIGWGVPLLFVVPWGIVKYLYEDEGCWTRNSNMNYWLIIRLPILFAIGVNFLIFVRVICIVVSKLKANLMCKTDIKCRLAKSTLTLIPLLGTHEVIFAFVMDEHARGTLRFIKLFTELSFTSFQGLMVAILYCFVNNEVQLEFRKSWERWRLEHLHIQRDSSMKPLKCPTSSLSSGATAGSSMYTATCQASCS
Experiment: qHTS of GLP-1 Receptor Inverse Agonists (Inhibition Mode); further: nearly all actives have a fitted effect of over 55% in size
Details: HEK293 GLP-1R CRE-luciferase, luminescence, 24 h, GLP-1R form is constitutively active; activity change, negative = inhibition: at 38.3 µM (top of the series) unless noted
Outline: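 HEK293 cells stably co-expressing a cAMP-responsive luciferase reporter and constitutively active GLP-1R were seeded, incubated 12 h, then exposed to compounds for 24 h at 37 C. Luminescence was read 12 min after detection reagent; inverse agonists lower signal.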
On the % scale 0 is the no-effect control and ±100 the full control effect; potency means the concentration at half of the fitted maximal effect; tags describe the fitted curve by direction and shape.

Potency, inactive:
Cc1ccc(-n2nc(-c3ccc(F)cc3)c3cnc4cc5c(cc4c32)OCO5)cc1C, CC(C)OCCCNC(=O)CCCC(=O)Nc1ccc(OCCc2ccccc2)cc1, CCOC(=O)c1ccc(NC(=O)c2c(C)oc3nc(C)nc(N4CCCC4)c23)cc1, COc1ccc(-c2[nH]ncc2C(=O)NCc2cccc(F)c2)cc1, CCC1CCCCN1S(=O)(=O)c1ccc(N2CCCCS2(=O)=O)cc1 (stereo not drawn), O=C(NC1CCCC1)C(c1ccsc1)N(C(=O)Cc1cccs1)c1cccc(F)c1 (stereo not drawn), CCOc1ccccc1NC(=O)COc1cccc2c(=O)n(CCOC)ccc12, Cn1ccc2c(-c3ccc(CO)cc3)cc3c(c21)C1CCC3C1 (stereo not drawn), Cc1ccccc1Nc1nc(N)nc(CSc2nc3ccccc3s2)n1, C[C@@H]1CN([C@H](C)CO)C(=O)CCCn2cc(nn2)CO[C@H]1CN(C)S(=O)(=O)c1ccc(Oc2ccccc2)nc1, O=C(NCCC1CCCCN1S(=O)(=O)c1ccc(F)cc1)C(=O)NCc1cccnc1 (stereo not drawn), O=C(COc1coc(CN2CCN(c3ccccc3F)CC2)cc1=O)Nc1ccccc1, NC(=O)c1oc2ccccc2c1NC(=O)C1CC(=O)N(c2ccccc2)C1 (stereo not drawn), COc1cc(C2Nc3ccccc3C(=O)N2c2ccccc2OC)ccc1O (stereo not drawn)

Potency, active:
CCOc1ccc(N(CC(=O)NC2CC3CCC2C3)S(=O)(=O)c2ccc(C)cc2)cc1 (stereo not drawn) 7.94 µM

Potency, inconclusive:
CN(CC(=O)Nc1cccc(F)c1)C(=O)CC1CC2CCC1C2 (stereo not drawn) 2.51 µM [inhibitor, partial curve, poor fit], CCc1ccc(-c2cc(C)no2)cc1S(=O)(=O)N1CCN(c2cccc(Cl)c2)CC1 1 µM [inhibitor, full curve, poor fit], CC(C)(C)n1nnnc1C(c1ccc(Cl)cc1)N(Cc1cccnc1)Cc1ccco1 (stereo not drawn) 28.2 µM [inhibitor, single point], COc1ccccc1-c1cc(C(=O)N/N=C/c2cccs2)c2ccccc2n1 6.31 µM [inhibitor, partial curve, poor fit], OC(CNCc1ccccc1F)(c1ccc(F)cc1)c1ccc(F)cc1 28.2 µM [inhibitor, single point], Cc1ccc(NC(=O)CC2=NC(=O)C(CC(=O)Nc3ccccc3C)S2)cc1 (stereo not drawn) 2.24 µM [inhibitor, full curve, poor fit], Cc1cc(N2CCN(C)CC2)nc2ccc(NC(=O)Nc3ccccc3)cc12 28.2 µM [inhibitor, single point], COc1ccccc1-c1nc(C#N)c(N2CCN(c3ccccc3)CC2)o1 28.2 µM [inhibitor, single point], O=C(NCc1ccco1)C(c1cccs1)N(C(=O)Cc1cccs1)c1ccccc1 (stereo not drawn) 12.6 µM [inhibitor, partial curve, poor fit], CC(=O)Nc1c(C(=O)Nc2cccc(C)c2)nnn1-c1ccc(C)cc1 28.2 µM [inhibitor, single point], COc1ccc(C2=NN(C(C)=O)C(c3cn(-c4ccccc4)nc3-c3cccs3)C2)cc1 (stereo not drawn) 4.47 µM [inhibitor, partial curve, poor fit], COc1ccc(N(C)S(=O)(=O)c2cccc(C(=O)OCC(=O)N3CC(C)CC(C)C3)c2)cc1 (stereo not drawn) 11.2 µM [inhibitor, partial curve, poor fit], O=C(Nc1ccc2c(c1)CCCN2C(=O)c1ccccc1)c1ccccc1 4.47 µM [inhibitor, partial curve, poor fit], Cc1cc(Nc2nnnn2-c2ccccc2)n(-c2ccc(Cl)cc2)n1 28.2 µM [inhibitor, single point], Oc1ccc(N=Nc2ccccc2)o1 2 µM [inhibitor, full curve, poor fit], O=C(Nc1ccc2c(c1)CCC2)c1cccc(OC(F)F)c1 14.1 µM [inhibitor, single point], COc1cc(C(=O)ON=C2C3CC4CC(C3)CC2C4)cc(OC)c1OC 28.2 µM [inhibitor, single point], Cc1cc(C)cc(NC(=O)COc2coc(CN3CCN(c4ccccc4)CC3)cc2=O)c1 11.2 µM [inhibitor, partial curve, poor fit], Cc1oc(-c2ccc(Cl)cc2)nc1CN1CCCC(C(=O)N2CCN(C(=O)c3ccco3)CC2)C1 (stereo not drawn) 8.91 µM [inhibitor, partial curve, poor fit], OC[C@@H]1CN(Cc2ccc(Cl)cc2)C[C@H](n2cnc3c(Nc4ccccc4)ncnc32)O1 14.1 µM [inhibitor, single point], Cc1cc(Br)c(Cl)cc1NC(=O)CN1C(=O)C2C3CC(c4ccccc4)C(C3)C2C1=O (stereo not drawn) 31.6 µM [inhibitor, single point], CCCCNC(=O)C(=O)Nc1ccc2c(c1)N(S(=O)(=O)c1cccs1)CCC2 1 µM [inhibitor, full curve, poor fit], O=C(CC1C(=O)NCCN1C(=O)Nc1ccc(F)cc1F)Nc1cc(Cl)ccc1Cl (stereo not drawn) 14.1 µM [inhibitor, partial curve, poor fit], CC1CCC(NC(=O)c2ccc3c(c2)N(Cc2cccc(Cl)c2)C(=O)c2ccccc2S3=O)CC1 (stereo not drawn) 12.6 µM [inhibitor, single point], C=CC(C)(C)c1c(O)c(CC=C(C)C)c(O)c2c(=O)c3ccc(O)c(O)c3oc12 14.1 µM [inhibitor, single point], CCN(CC)CCC#CC(O)(c1ccccc1)c1ccccc1 7.08 µM [inhibitor, partial curve, poor fit], Cc1ccc(C2(C)CC(C)(C)N(C(=O)CSc3nnc(C)s3)c3ccccc32)cc1 (stereo not drawn) 10 µM [inhibitor, partial curve, poor fit], O=C(Nc1ccccc1)c1cccc(N2C(=O)C3C4C=CC(C5CC45)C3C2=O)c1 (stereo not drawn) 7.94 µM [inhibitor, partial curve, poor fit], CCNC(=S)N1CCN(c2nc(-c3ccc(F)cc3)cs2)CC1 12.6 µM [inhibitor, single point], Cc1ccc(C(=O)N(Cc2nc3ccccc3c(=O)[nH]2)C2CCCC2)cc1 12.6 µM [inhibitor, partial curve, poor fit], O=C(Nc1cccc(F)c1)Nc1ccc2c(c1)OCO2 10 µM [inhibitor, partial curve], CCc1nc2c(OCCOc3ccc(F)cc3)cccn2c1N(C=O)Cc1ccc(OC)cc1 4.47 µM [inhibitor, partial curve, poor fit], Cc1csc(SCC(=O)c2cc(C)n(Cc3cccs3)c2C)n1 6.31 µM [inhibitor, full curve, poor fit], C/C(CC(=O)Nc1ccc(Br)cc1)=N\NC(=O)Cc1csc(N)n1 22.4 µM [inhibitor, single point], Cc1cc(NC(=O)C(C)SCC(=O)Nc2ccccc2N2CCCCC2)no1 (stereo not drawn) 15.8 µM [inhibitor, single point], COc1ccccc1CNC(=O)c1sccc1-c1ccccc1 10 µM [inhibitor, partial curve], Oc1c(Cl)cc(Cl)cc1/C=N/NC(=S)NC1CC2C=CC1C2 (stereo not drawn) 1.41 µM [inhibitor, full curve, poor fit], COc1ccc(NS(=O)(=O)c2ccc3[nH]c4c(c3c2)CCCC4)c(OC)c1 11.2 µM [inhibitor, single point], O=C1c2ccsc2SCCN1Cc1ccc(Cl)cc1Cl 12.6 µM [inhibitor, partial curve, poor fit], CCCCNC(=O)C1C(c2ccccc2)=Nc2ccccc2N1C(=O)c1ccc(C)cc1 (stereo not drawn) 12.6 µM [inhibitor, single point], O=C(CCc1ccccc1)NCC(c1ccco1)N1CCc2ccccc21 (stereo not drawn) 6.31 µM [inhibitor, partial curve, poor fit], O=C(NCc1csc(-c2cccs2)n1)c1cccc(Cl)c1 12.6 µM [inhibitor, single point], O=C(CNc1cccc(S(=O)(=O)N2CCCCC2)c1)Nc1ccccc1F 28.2 µM [inhibitor, single point], CCN(CC)CCCn1c2c(c(SCC(=O)Nc3cc(C)cc(C)c3)nc1=O)CCC2 10 µM [inhibitor, partial curve, poor fit], CC1CCCCN1CC(O)COc1ccc(OCC(O)CN2CCCCC2C)cc1 (stereo not drawn) 15.8 µM [inhibitor, single point], O=C(Oc1ccccc1C(=O)Oc1ccccc1)c1ccco1 25.1 µM [inhibitor, single point], CCOC(=O)c1cccc(N2C(=O)C3C(C2=O)C2C=CC3C23CC3)c1 (stereo not drawn) 3.55 µM [inhibitor, partial curve, poor fit]

Activity change, negative = inhibition, inconclusive:
O=c1c2ccccc2nc(/C=C/c2cc(Br)ccc2O)n1CCCO -76.5% [inhibitor]
